In PubChem BioAssay AID588855 (National Center for Advancing Translational Sciences (NCATS), 2011):
In all, about 410,000 compounds went through this assay and about 5,000 (1.2%) were called active. Inconclusive results, whose numbers are uncertain, are shown with a selection of clear calls. Calls follow the shape of the dose curve; as a rule, active = well fitted inhibition curve with a large enough effect; inconclusive = small, poorly fitted or top-dose-only effect; inactive = no such curve, though single readings can be large or run the other way. Potencies of inconclusive entries are doubtful fits and often do not repeat.

Experiment: qHTS for Inhibitors of TGF-b; also: nearly all actives have a fitted effect of over 65% in size
Conditions: HepG2 CAGA-GFP TGF-b/SMAD3 reporter, GFP fluorescence, 18 h, TGF-beta stimulated, 500 pg/mL final; series mostly up to 46.1 µM; activity, negative = inhibition: at the top concentration
In short: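 Inhibition of TGF-beta-driven CAGA-GFP reporter expression in HEPG2 cells is measured by cellular GFP fluorescence after 18 h stimulation with 500 pg/mL recombinant TGF-beta in 1% FBS medium at 37 degrees C.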
% is scaled to controls: 0 for no effect and ±100 for the full control effect; potency is read from the fitted curve at half-maximal effect; tags tell the direction and shape of the fitted curve.

| SMILES | Potency | activity, negative = inhibition |
| --- | --- | --- |
| CCCc1[nH]nc2c1C1(C(=O)N(CC)c3ccccc31)C(C#N)=C(N)O2 (stereo not given) | inconclusive: 7.94 µM [inhibitor, partial curve] |  |
| COc1cccc(C(=O)N/N=C/c2ccc(Oc3ccc([N+](=O)[O-])cn3)c(OC)c2)c1 |  | inactive: -17.6% |
| O=C(COc1ccccc1-c1ccccc1)N/N=C/c1ccccn1 |  | inactive: -29% |
| COc1cc(C(=O)NCCNC(=O)c2cnccn2)cc(OC)c1OC | inconclusive: 35.5 µM [inhibitor, single point] |  |
| CCCc1ccc(-c2cc(NC(=O)CSc3nnc(N)s3)n(-c3ccccc3)n2)cc1 | inconclusive: 35.5 µM [inhibitor, single point] |  |
| COc1ccc(N=C2C(=Nc3ccc(OC)cc3)N(c3ccccc3)C(=S)N2C(=O)c2ccc(Cl)cc2)cc1 |  | inactive: -11.7% |
| COc1ccc(NC(=O)CSc2nnc(C)n2C2CC2)cc1S(=O)(=O)N1CCOCC1 |  | inactive: 36.7% |
| Cc1ccc(S(=O)(=O)N2CCN(C(=O)c3ccco3)CC2)c(C)c1 |  | inactive: -2.52% |
| Cc1ccc2[nH]c(C)c(/C=N/Nc3nc4ccccc4s3)c2c1 | active: 11.2 µM |  |
| CN(CC(=O)N1CCN(C2CCCCC2)CC1)S(=O)(=O)c1cccc2nsnc12 |  | inactive: 25.1% |
| O=C(c1ccc(Cl)cc1)N1CCOc2ccccc21 |  | inactive: 0% |
| COc1ccccc1CNS(=O)(=O)c1cc(CN2C(=O)c3cccnc3C2=O)ccc1OC |  | inactive: 1.76% |
| Cc1ccc(-n2ncc(C(=O)N3CCN(c4ccc(Cl)cc4)CC3)c2C2CCN(C(=O)OC(C)(C)C)CC2)c(C)c1 |  | inactive: -7.65% |
| COc1ccc(-c2nnc(C3CCN(S(=O)(=O)c4ccc(C)c(C)c4)CC3)o2)cc1 |  | inactive: -23.4% |
| CC(C)COc1ccc(CSCCNC(=S)Nc2ccccc2)cc1 | inconclusive: 35.5 µM [inhibitor, single point] |  |
| CN1OC[C@@H]2CN(C(=S)NCCc3ccccc3)[C@H](c3ccc(N4CCCCC4)cc3)C[C@@H]21 | inconclusive: 3.98 µM [inhibitor, full curve, poor fit] |  |
| Cc1cc(OCC(=O)C(C)(C)C)c2c(-c3ccccc3)cc(=O)oc2c1 |  | inactive: -12.9% |
| CCN1CCN(S(=O)(=O)c2ccc(Cl)c(C(=O)Nc3ccccc3N3CCCCC3)c2)CC1 | inconclusive: 35.5 µM [inhibitor, single point] |  |
| Cc1[nH]n(C)c(=O)c1C(=O)c1c(-c2c(Cl)cccc2Cl)noc1C | inconclusive: 17.8 µM [inhibitor, single point] |  |
| NC(=O)CSc1nnc(-c2cc3ccccc3o2)n1Cc1ccccc1 | inconclusive: 0.794 µM [inhibitor, full curve, poor fit] |  |
| COc1ccc(Cc2nc3ccccc3n2Cc2ccccc2F)cc1 | inconclusive: 15.8 µM [inhibitor, single point] |  |
| O=C(NCc1cccc(C(F)(F)F)c1)C1CC(c2ccccc2[N+](=O)[O-])=NO1 (stereo not given) |  | inactive: -3.09% |
| CCCCNC(=S)N(CCN(CC)CC)Cc1cc2cc3c(cc2[nH]c1=O)OCCO3 | inconclusive: 11.2 µM [inhibitor, partial curve] |  |
| COc1cc(/C=C/C(=O)OCC(=O)NC(C)c2ccccc2)cc(OC)c1OC (stereo not given) |  | inactive: -3.31% |

| SMILES | Potency | activity, negative = inhibition |
| --- | --- | --- |
| OC(COc1ccccc1Cl)CN1CCN(CC(O)COc2ccccc2Cl)CC1 (stereo not given) | inconclusive: 25.1 µM [inhibitor, single point] |  |
| COc1ccc(OCC(=O)Nc2cc(-c3nn4c(C)nnc4s3)ccc2C)cc1 | inconclusive: 5.62 µM [inhibitor, single point] |  |
| Cc1cccc(NC(=O)COC(=O)c2ccc3nc(C)c(C)nc3c2)c1 |  | inactive: 8.1% |
| CC(C)CN1C(=S)SC(C)(C)C1n1oc(=O)n(-c2ccc(Cl)cc2)c1=O (stereo not given) | inconclusive: 22.4 µM [inhibitor, single point] |  |
| Cc1cc(=O)c2c(C)nn(-c3ccccc3)c2[nH]1 |  | inactive: -5.51% |
| c1ccc(OCc2nn3c(-c4ccco4)nnc3s2)cc1 | inconclusive: 6.31 µM [inhibitor, single point] |  |
| CC(C)CNC(=O)c1cccc(NC(=O)c2ccc(Cl)c([N+](=O)[O-])c2)c1 | inconclusive: 8.91 µM [inhibitor, partial curve, poor fit] |  |
| S=C(Nc1ccccc1)N1CCCCCCC1 | inconclusive: 12.6 µM [inhibitor, single point] |  |
| NC(=S)N/N=C/c1ccc(-n2nncc2-c2ccc(Cl)cc2)cc1 | inconclusive: 35.5 µM [inhibitor, partial curve, poor fit] |  |
| COCCN(C(=O)COC(=O)/C=C/c1nc2ccccc2s1)c1c(N)n(Cc2ccccc2)c(=O)[nH]c1=O | inconclusive: 17.8 µM [inhibitor, single point] |  |
| CS(=O)(=O)Nc1ccc(C2=NN(C(=O)c3ccccc3)C(c3cccs3)C2)cc1 (stereo not given) |  | inactive: -7.98% |
| NC(=S)N/N=C\c1ccccc1OCc1ccccc1 | inconclusive: 25.1 µM [inhibitor, single point] |  |
| CC1=NN(C(=O)c2ccccc2-n2cccc2)C(O)(C(F)(F)F)C1 (stereo not given) | inconclusive: 11.2 µM [inhibitor, single point] |  |
| Cc1sc(NC(=O)/C=C/C(=O)O)c(C(N)=O)c1-c1ccc(C(C)(C)C)cc1 | inconclusive: 22.4 µM [inhibitor, single point] |  |
| C[C@H]1COC(=O)[C@H](Cc2ccc(F)cc2)C/C=C\C[C@H](CC(=O)NCCO)C(=O)N1 |  | inactive: -1.42% |
| Cc1ccccc1CSc1ncc(CO)n1Cc1ccc(F)cc1 |  | inactive: -19.6% |
| O=C(O)c1ccc2c(c1)S(=O)(=O)c1cc(Cl)ccc1C2=O | inconclusive: 5.62 µM [inhibitor, single point] |  |
| COc1ccc(C2/C=C\CN(CC(C)C)CC(=O)N2Cc2cccc(F)c2)cc1 (stereo not given) | inconclusive: 17.8 µM [inhibitor, single point] |  |
| COc1ccccc1N1CCN(C(c2cccs2)C(C)NC(=O)C(=O)N2CCOCC2)CC1 (stereo not given) |  | inactive: 0.425% |
| Cc1ccc(S(=O)(=O)c2cn(C)c3cc(N4CCCC(C)C4)c(F)cc3c2=O)c(C)c1 (stereo not given) |  | inactive: 2.25% |
| COCCNC(=O)C1(C)CCCN(Cc2cc(-c3ccccc3)nn2C)C1 (stereo not given) |  | inactive: -0.889% |
| COCCNC(=O)c1ccccc1NC(=O)Nc1ccccc1 |  | inactive: 0% |
| COc1ccc(C(CCNCc2ccc(N(C)C)cc2)C(C)C)cc1 (stereo not given) | inconclusive: 14.1 µM [inhibitor, single point] |  |
| C=CC[C@@H](CC(=O)N[C@H](CO)Cc1ccccc1)C(=O)N[C@@H](C)COC(=O)[C@@H](CC=C)Cc1ccc(F)cc1 | inconclusive: 7.08 µM [inhibitor, partial curve] |  |

| SMILES | Potency | activity, negative = inhibition |
| --- | --- | --- |
| O=[N+]([O-])c1cccc(SSc2cccc([N+](=O)[O-])c2)c1 | inconclusive: 22.4 µM [inhibitor, single point] |  |
| Cc1cc(C(=O)N/N=C/c2cccn2C)no1 |  | inactive: -11.6% |
| O=[N+]([O-])c1ccc(Oc2cccnc2)c([N+](=O)[O-])c1 | inconclusive: 35.5 µM [inhibitor, partial curve, poor fit] |  |
| COc1cc(/C=N/NC(=O)c2nc(-c3ccccc3)n(-c3ccccc3)n2)ccc1O | inconclusive: 0.794 µM [inhibitor, full curve, poor fit] |  |
| CCOC(=O)C1=C(CSCc2ccccc2)NC(=O)NC1c1cc(C)ccc1C (stereo not given) | inconclusive: 12.6 µM [inhibitor, partial curve, poor fit] |  |
| CCN(CC)C(=O)CN(c1cccc(C(F)(F)F)c1)S(C)(=O)=O | inconclusive: 14.1 µM [inhibitor, partial curve, poor fit] |  |
| CCN(CC)CCC(c1ccc(OC)cc1)c1c(OC)cc(OC)c2c(C)cc(=O)oc12 (stereo not given) | inconclusive: 31.6 µM [inhibitor, single point] |  |
| Cc1ccc(C(=O)CCC2CCCCC2=O)cc1 (stereo not given) | inconclusive: 35.5 µM [inhibitor, single point] |  |
| Cc1ccc(C)c(N2CCN(CCCNC(=O)CCn3c(=O)c4cccn4c4cccnc43)CC2)c1 | inconclusive: 35.5 µM [inhibitor, single point] |  |
| COc1ccc(Nc2ncnc3ccc(Br)cc23)cc1OC |  | inactive: -15.7% |
| Cc1cccc(-n2c(C)cc(C=C(C#N)C#N)c2C)c1 | inconclusive: 3.16 µM [inhibitor, single point] |  |
| O=C(Nc1cccc(OC(F)(F)F)c1)C1Cc2c(-c3ccc4c(c3)OCO4)ccnc2O1 (stereo not given) | inconclusive: 35.5 µM [inhibitor, single point] |  |
| CCOc1ccccc1N1CCN(Cc2ccc(Br)s2)CC1 |  | inactive: -24.4% |
| COc1ccc(OCCNC(=O)c2ccc3nc(C)c(N(C)C(=O)CCc4ccccc4)n3c2)cc1 |  | inactive: -3.8% |
| O=C(NCCOCCn1c(=O)oc2ccccc21)Nc1ccc(F)cc1 |  | inactive: -16% |
| O=C(CCN1CCN(S(=O)(=O)c2ccc(Br)cc2)CC1)Nc1ccccc1F | inconclusive: 35.5 µM [inhibitor, single point] |  |
| CC(=O)NCCn1c(SCc2ccc(C)cc2)nc2ccccc2c1=O | inconclusive: 15.8 µM [inhibitor, single point] |  |
| COc1cccc(-c2ccc3ncnc(N(C)Cc4ccco4)c3c2)c1 | inconclusive: 0.316 µM [inhibitor, full curve, poor fit] |  |
| O=C(NCc1ccccc1)c1ccc(CSc2nc3cccnc3n2Cc2ccccc2F)cc1 |  | inactive: -16.1% |
| Cc1ccc(-c2noc(CNC(=O)c3ccccc3)n2)cc1 |  | inactive: -4.02% |
| O=C(c1ccccc1)N(C(=O)c1ccccc1)c1ncnc2c1C(c1ccccc1)c1c(ccc3ccccc13)O2 (stereo not given) |  | inactive: 2.84% |
| CC1CCN(S(=O)(=O)c2ccc3c(c2)CCC(=O)N3CC(=O)Nc2cccc(C#N)c2)CC1 | inconclusive: 35.5 µM [inhibitor, single point] |  |
